{"source": "paper PMC4336329", "about": "(PLoS ONE, 2015)", "note": "Screen size: about 310,000 compounds; about 2,200 (0.71%) showed an effect of 50% or more. Effects have a minus sign here. This is one part of the list."}
{"target": "human ether-à-go-go-related gene (hERG) potassium channel (human, UniProt Q12809)", "sequence (Q12809 whole entry, looked up)": "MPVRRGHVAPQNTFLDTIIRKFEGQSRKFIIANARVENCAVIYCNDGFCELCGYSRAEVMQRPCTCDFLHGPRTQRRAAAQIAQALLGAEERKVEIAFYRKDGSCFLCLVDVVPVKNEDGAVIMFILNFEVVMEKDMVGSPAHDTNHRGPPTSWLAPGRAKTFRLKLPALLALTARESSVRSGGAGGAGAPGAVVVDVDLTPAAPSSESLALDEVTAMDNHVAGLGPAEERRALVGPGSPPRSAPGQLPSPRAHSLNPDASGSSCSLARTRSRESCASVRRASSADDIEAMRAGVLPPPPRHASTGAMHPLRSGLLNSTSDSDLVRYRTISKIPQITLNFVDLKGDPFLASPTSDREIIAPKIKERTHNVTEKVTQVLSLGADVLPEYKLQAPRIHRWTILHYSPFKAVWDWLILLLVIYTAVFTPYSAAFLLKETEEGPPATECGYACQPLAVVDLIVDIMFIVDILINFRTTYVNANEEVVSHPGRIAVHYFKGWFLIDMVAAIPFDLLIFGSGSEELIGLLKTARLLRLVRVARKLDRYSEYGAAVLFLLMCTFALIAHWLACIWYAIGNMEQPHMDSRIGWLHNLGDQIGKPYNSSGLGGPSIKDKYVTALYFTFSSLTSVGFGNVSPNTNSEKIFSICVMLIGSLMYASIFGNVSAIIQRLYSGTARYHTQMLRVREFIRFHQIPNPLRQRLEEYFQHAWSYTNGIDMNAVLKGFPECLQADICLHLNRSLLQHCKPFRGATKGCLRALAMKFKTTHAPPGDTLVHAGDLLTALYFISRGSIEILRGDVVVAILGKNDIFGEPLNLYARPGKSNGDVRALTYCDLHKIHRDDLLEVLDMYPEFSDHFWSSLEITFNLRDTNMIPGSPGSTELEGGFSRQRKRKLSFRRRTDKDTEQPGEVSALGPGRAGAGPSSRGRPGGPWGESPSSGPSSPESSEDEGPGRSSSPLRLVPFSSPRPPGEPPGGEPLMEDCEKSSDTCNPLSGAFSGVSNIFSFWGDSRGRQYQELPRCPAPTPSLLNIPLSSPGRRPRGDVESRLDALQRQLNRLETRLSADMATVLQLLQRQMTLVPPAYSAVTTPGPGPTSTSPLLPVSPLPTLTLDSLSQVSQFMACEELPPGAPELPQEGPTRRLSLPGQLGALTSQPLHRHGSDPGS", "test": "primary screen, population patch clamp on CHO cells stably expressing hERG", "units": {"hERG current change (%, negative = inhibition) at 1uM": "%"}}
{"smiles": "CCOC(=O)Nc1nc(-c2ccccc2)c(C(=O)c2ccccc2)s1", "hERG current change (%, negative = inhibition) at 1uM": 1.49}
{"smiles": "C=CCNC(=O)CC(=O)N/N=C/c1cccc(Br)c1", "hERG current change (%, negative = inhibition) at 1uM": 7.57}
{"smiles": "COC(=O)c1cc(OC)c(OC)cc1NC(=S)Nc1cccc(Cl)c1", "hERG current change (%, negative = inhibition) at 1uM": 11.2}
{"smiles": "CCn1cc(C(=O)O)c(=O)c2cnc(N3CCN(C(=S)Nc4ccccc4)CC3)nc21", "hERG current change (%, negative = inhibition) at 1uM": 14.9}
{"smiles": "COc1ccc(C2C=C(C)Nc3nc4ccccc4n32)cc1", "note": "(stereo not drawn)", "hERG current change (%, negative = inhibition) at 1uM": 7.08}
{"smiles": "COc1ccccc1CCC(=O)Nc1ccc(OC)c(S(=O)(=O)N2CCOCC2)c1", "hERG current change (%, negative = inhibition) at 1uM": 12.5}
{"smiles": "Cc1nn(C)c(Oc2ccccc2)c1CCNS(=O)(=O)c1ccc(Cl)cc1", "hERG current change (%, negative = inhibition) at 1uM": 6.35}
{"smiles": "O=C(c1cc2ccccc2oc1=O)N1CCN(c2ccc(N3CCOCC3)nn2)CC1", "hERG current change (%, negative = inhibition) at 1uM": 10.1}
{"smiles": "Cl.O=C(CCN1CCCCC1)Nc1cccc(Br)c1", "hERG current change (%, negative = inhibition) at 1uM": 2.39}
{"smiles": "Cc1cc(C(=O)Nn2c(C3CCCCC3)nc3ccccc3c2=O)ccc1[N+](=O)[O-]", "hERG current change (%, negative = inhibition) at 1uM": 11.3}
{"smiles": "NC(=O)C1CCN(c2ccc(S(=O)(=O)N3CCCCC3)cn2)CC1", "hERG current change (%, negative = inhibition) at 1uM": 18}
{"smiles": "Cc1cc(/C=C2/NC(=O)NC2=O)c(C)n1-c1ccc(N2CCOCC2)cc1", "hERG current change (%, negative = inhibition) at 1uM": 9.64}
{"smiles": "CCN(Cc1ccncc1)C(=O)CCc1nnc(CCC2CCCCC2)o1", "hERG current change (%, negative = inhibition) at 1uM": 1.67}
{"smiles": "C[C@@]12CCC3[C@@](CC[C@@H]4[C@](C)(C(=O)O)CCC[C@@]34C)(C[C@H]1O)C2", "note": "(stereo partly drawn)", "hERG current change (%, negative = inhibition) at 1uM": 12.6}
{"smiles": "COc1cccc(NC(=O)C2COc3ccccc3O2)c1", "note": "(stereo not drawn)", "hERG current change (%, negative = inhibition) at 1uM": 10.4}
{"smiles": "Cc1cc(C)cc(Nc2ccc3nonc3c2[N+](=O)[O-])c1", "hERG current change (%, negative = inhibition) at 1uM": 6.34}
{"smiles": "CCOc1ccc(-c2nc3ccccc3c(=O)o2)cc1", "hERG current change (%, negative = inhibition) at 1uM": 11.9}
{"smiles": "CC(C)(C)c1ccc(OCCNC(=S)Nc2ccccc2)cc1", "hERG current change (%, negative = inhibition) at 1uM": 10.5}
{"smiles": "COc1cccc(CNC(=O)Cn2ccc3cc(S(=O)(=O)N4CCCCCC4)ccc32)c1", "hERG current change (%, negative = inhibition) at 1uM": 15.2}
{"smiles": "O=C(NNC(=S)Nc1ccccc1C(F)(F)F)C1CC1", "hERG current change (%, negative = inhibition) at 1uM": 3.93}
{"smiles": "CNC(=S)Nc1ccc(-c2nc3ccc(C)cc3s2)cc1", "hERG current change (%, negative = inhibition) at 1uM": 10.9}
{"smiles": "COc1ccccc1N1C(=O)c2cccc3cccc(c23)C1=O", "hERG current change (%, negative = inhibition) at 1uM": 12.1}
{"smiles": "CN(C)C1(c2nnnn2-c2ccc(Cl)cc2)CCCCC1", "hERG current change (%, negative = inhibition) at 1uM": 9.89}
{"smiles": "CO/N=C/NC(=O)c1c(OC)ccnc1Oc1ccc(Cl)cc1", "hERG current change (%, negative = inhibition) at 1uM": 1.44}
{"smiles": "Cc1occc1C(=O)N1CCCC(N2CCN(c3cccc(Cl)c3)CC2)C1", "note": "(stereo not drawn)", "hERG current change (%, negative = inhibition) at 1uM": -6.5}
{"smiles": "COc1ccc(CCNC(=O)CSc2ccc(-c3ccncc3)nn2)cc1", "hERG current change (%, negative = inhibition) at 1uM": 7.32}
{"smiles": "CC(C)(C)Cn1c(=O)[nH]c(=O)c2cc([N+](=O)[O-])cnc21", "hERG current change (%, negative = inhibition) at 1uM": 11.4}
{"smiles": "O=C(CN1C(=O)NC2(CCCC2)C1=O)NCCN1C(=O)S/C(=C\\c2ccccc2F)C1=O", "hERG current change (%, negative = inhibition) at 1uM": 11.5}
{"smiles": "CCc1ccccc1NC(=S)N(CCCN1CCOCC1)Cc1cccs1", "hERG current change (%, negative = inhibition) at 1uM": -4.11}
{"smiles": "Cc1ccccc1CN(C)CCS(=O)(=O)c1cc(Cl)ccc1Cl", "hERG current change (%, negative = inhibition) at 1uM": 16.2}
{"smiles": "COc1ccccc1CC(=O)Nc1ccc(O)cc1C(=O)O", "hERG current change (%, negative = inhibition) at 1uM": -4.41}
{"smiles": "CN(CC(=O)Nc1cccc(F)c1)CC(=O)Nc1cc(S(=O)(=O)N2CCOCC2)ccc1Cl", "hERG current change (%, negative = inhibition) at 1uM": 2.03}
{"smiles": "CC(=O)Nc1c2c(nn1-c1ccccc1)CS(=O)C2", "note": "(stereo not drawn)", "hERG current change (%, negative = inhibition) at 1uM": 17.8}
{"smiles": "CCCCNC(=O)c1cn(CC)c2cc(N3CCN(C(=O)c4ccco4)CC3)c(F)cc2c1=O", "hERG current change (%, negative = inhibition) at 1uM": -3.68}
{"smiles": "NS(=O)(=O)c1cc(C(=O)O)c(NCc2ccco2)cc1Cl", "hERG current change (%, negative = inhibition) at 1uM": 9.92}
{"smiles": "COc1ccc(-c2noc(C3CCCN(C(=O)c4ccccc4)C3)n2)cc1", "note": "(stereo not drawn)", "hERG current change (%, negative = inhibition) at 1uM": -3.28}
{"smiles": "CCCCNc1cc(NC(C)=O)cc2cc(OC)c(OC)cc12", "hERG current change (%, negative = inhibition) at 1uM": 9.91}
{"smiles": "Oc1c(C=C2N=c3ccccc3=N2)sc(=S)n1C1CCCCC1", "note": "[17505580]", "hERG current change (%, negative = inhibition) at 1uM": 5.09}
{"smiles": "COc1ccccc1OC(C)C(=O)N1CCc2ccccc21", "note": "(stereo not drawn)", "hERG current change (%, negative = inhibition) at 1uM": 1.33}
{"smiles": "CCOC(=O)c1c(NC(=O)c2c(Br)cnn2C)c(C#N)nn1-c1ccccc1", "hERG current change (%, negative = inhibition) at 1uM": 7.59}
{"smiles": "COc1ccc(Cl)cc1Nc1nc(N)nc(C(F)(F)F)n1", "hERG current change (%, negative = inhibition) at 1uM": -17.4}
{"smiles": "Cn1c(=O)n(CC(N)=O)c(=O)c2c1nc(Br)n2Cc1ccccc1", "hERG current change (%, negative = inhibition) at 1uM": 16.4}
{"smiles": "COc1c(C)cc(C(=O)C2CCCN(C(=O)/C=C/c3ccccn3)C2)cc1C", "note": "(stereo not drawn)", "hERG current change (%, negative = inhibition) at 1uM": 4.48}
{"smiles": "COc1ccc(N2CCN(C(=O)CCC(=O)N3CCOc4ccc(C)cc43)CC2)cc1", "hERG current change (%, negative = inhibition) at 1uM": 9.78}
{"smiles": "Cc1ccc(C(=O)C2CCN(CC(=O)NC3CCCC3)CC2)cc1", "hERG current change (%, negative = inhibition) at 1uM": 3.14}
{"smiles": "O=C(N/N=C/c1c(O)n(C2CCCCC2)c(=S)[nH]c1=O)c1ccccc1", "hERG current change (%, negative = inhibition) at 1uM": 11.7}
{"smiles": "COc1ccc(C(=O)NNC(=O)CCCCC(=O)NNC(=O)c2ccc(OC)cc2)cc1", "hERG current change (%, negative = inhibition) at 1uM": 1.74}
{"smiles": "O=C(c1ccc(Cl)s1)N1CCCC(N2CCN(c3ccc(F)cc3)CC2)C1", "note": "(stereo not drawn)", "hERG current change (%, negative = inhibition) at 1uM": -63.2}
{"smiles": "Fc1ccccc1CN(CCN1CCOCC1)C(=S)Nc1ccccc1Cl", "hERG current change (%, negative = inhibition) at 1uM": 4.86}
{"smiles": "BrC(=C\\c1ccccc1)/C=N/N1CCN(c2ccccn2)CC1", "hERG current change (%, negative = inhibition) at 1uM": 0.856}
{"smiles": "O=C(/C(=C(\\O)c1ccccc1)c1ncc[nH]1)c1ccccc1", "hERG current change (%, negative = inhibition) at 1uM": -0.656}
{"smiles": "Cc1cc(=O)[nH]c(SCc2nnc(-c3ccccc3)o2)n1", "hERG current change (%, negative = inhibition) at 1uM": 2.99}
{"smiles": "O=C(Nc1cc(N2CCOCC2)ncn1)c1ccccc1", "hERG current change (%, negative = inhibition) at 1uM": 6.84}
{"smiles": "Cc1ccc(/C(N)=N/OC(=O)Cc2cccc3ccccc23)cc1", "hERG current change (%, negative = inhibition) at 1uM": -3.98}
{"smiles": "N#Cc1ccc(C(=O)N2CCN(S(=O)(=O)c3ccc(Br)s3)CC2)cc1", "hERG current change (%, negative = inhibition) at 1uM": -7.18}
{"smiles": "O=C(c1sc2ccccc2c1Cl)N1CCN(c2ccccn2)CC1", "hERG current change (%, negative = inhibition) at 1uM": -7.53}
{"smiles": "Cc1ccc(CNC(=O)C2CCCN2C(=O)Nc2ccc(F)cc2)cc1", "note": "(stereo not drawn)", "hERG current change (%, negative = inhibition) at 1uM": 12.9}
